# Results reported in article PMC4336329 (PLoS ONE, 2015).
# Hit rate of the full screen: of about 310,000 compounds, about 2,200 (0.71%) showed an effect of 50% or more. Effects have a minus sign here. Some of the results follow. Where a SMILES comes first, the peptide text is derived from it. The star is where a group is joined. Cbz = O=C(OCc1ccccc1)*
# Molecular target: human ether-à-go-go-related gene (hERG) potassium channel (human, UniProt Q12809)
# Experiment: primary screen, population patch clamp on CHO cells stably expressing hERG
# Sequence of human ether-à-go-go-related gene (hERG) potassium channel (Q12809 whole entry, looked up): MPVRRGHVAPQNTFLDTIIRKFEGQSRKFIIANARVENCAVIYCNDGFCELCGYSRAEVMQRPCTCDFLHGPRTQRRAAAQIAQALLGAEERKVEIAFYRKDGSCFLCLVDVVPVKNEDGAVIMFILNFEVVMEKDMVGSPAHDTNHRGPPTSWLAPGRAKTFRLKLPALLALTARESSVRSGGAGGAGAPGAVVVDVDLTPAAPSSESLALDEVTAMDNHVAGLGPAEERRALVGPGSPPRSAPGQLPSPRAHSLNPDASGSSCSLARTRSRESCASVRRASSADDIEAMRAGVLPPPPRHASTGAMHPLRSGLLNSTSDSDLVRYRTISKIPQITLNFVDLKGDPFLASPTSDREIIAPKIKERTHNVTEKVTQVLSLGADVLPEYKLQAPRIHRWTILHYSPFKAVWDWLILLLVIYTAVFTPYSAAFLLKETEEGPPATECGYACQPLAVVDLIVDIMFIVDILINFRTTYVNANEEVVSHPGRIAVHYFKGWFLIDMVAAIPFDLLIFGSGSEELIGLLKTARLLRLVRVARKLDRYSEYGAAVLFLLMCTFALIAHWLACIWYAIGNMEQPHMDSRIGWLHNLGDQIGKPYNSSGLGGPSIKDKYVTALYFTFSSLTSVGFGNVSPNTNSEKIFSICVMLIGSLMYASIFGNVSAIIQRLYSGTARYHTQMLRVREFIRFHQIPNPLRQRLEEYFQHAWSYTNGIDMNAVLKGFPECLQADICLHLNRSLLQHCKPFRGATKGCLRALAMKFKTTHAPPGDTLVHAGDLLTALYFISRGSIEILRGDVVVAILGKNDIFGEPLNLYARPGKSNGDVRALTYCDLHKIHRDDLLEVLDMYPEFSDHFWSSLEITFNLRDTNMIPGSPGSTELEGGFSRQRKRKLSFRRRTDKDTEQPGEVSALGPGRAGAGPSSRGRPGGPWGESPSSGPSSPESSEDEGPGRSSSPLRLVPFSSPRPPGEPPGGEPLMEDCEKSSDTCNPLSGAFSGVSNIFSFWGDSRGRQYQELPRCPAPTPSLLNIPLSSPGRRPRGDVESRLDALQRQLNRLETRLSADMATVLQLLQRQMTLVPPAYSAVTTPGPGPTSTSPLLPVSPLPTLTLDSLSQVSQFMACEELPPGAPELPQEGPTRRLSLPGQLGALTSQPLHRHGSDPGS
row,Structure (SMILES),"hERG current change (%, negative = inhibition) at 1uM"
1,COc1ccc(S(=O)(=O)Nc2ccccc2C(=O)N2CCOCC2)cc1Cl,2.55%
2,O=C1NC(=O)C2(Cc3ccccc3N3CCCC32)C(=O)N1c1cccc(Cl)c1 (stereo not drawn),-8.75%
3,COc1ccc(C(c2sc3nc(C)nn3c2O)N2CCC3(CC2)OCCO3)cc1 (stereo not drawn),5.67%
4,CC1CCN(CCC(=O)Nc2ccc(Cl)cc2)CC1.Cl,2.88%
5,COc1cc(NC(=O)c2cccs2)c(OC)cc1NC(=O)c1cccs1,9.57%
6,CCCc1c(OCCCCc2nn[nH]n2)ccc(C(C)=O)c1O,9.67%
7,CCC1CCCCN1CCNS(=O)(=O)c1ccc2c(c1)oc(=O)n2C (stereo not drawn),15.9%
8,Cc1cc(F)ccc1N1CCC(N2CCN(C(C)C)C(CCO)C2)CC1 (stereo not drawn),3.39%
9,Cc1cccc(OCC(O)CN2CC3(C)CC2CC(C)(C)C3)c1 (stereo not drawn),-21.1%
10,CC(C)c1ccc(NC2CCCN(C(=O)CCN3CCCO3)C2)cc1 (stereo not drawn),11.2%
11,CC(C)c1ccc(N(C(=O)CNC(=O)c2ccco2)C(C(=O)NC2CCCC2)c2ccncc2)cc1 (stereo not drawn),7.75%
12,CCNc1nc(SCC(=O)OC)nc(N2CCOCC2)n1,8.98%
13,O=C(O)C1C2C=CC(C2)C1C(=O)Nc1ccccc1Br (stereo not drawn),10.9%
14,O=C(COc1ccc(C(=S)N2CCOCC2)cc1)N1CCCC1,3.36%
15,COCCn1c(SCC(=O)Nc2nnc(C)s2)nnc1-c1cc2ccccc2cc1O,1.16%
16,COc1ccc(S(=O)(=O)N2CCN(C3CC4CCC3C4)CC2)cc1.O=C(O)C(=O)O (stereo not drawn),12.5%
17,Cc1cc2nn(-c3cccc4ccccc34)nc2cc1N,10.2%
18,CCOc1ccccc1OCCCC(=O)N1CCN(S(=O)(=O)c2ccc(C)cc2C)CC1,3.39%
19,Nc1c(-c2ccccc2)cnn1-c1ccccc1,8.47%

row,Structure (SMILES),"hERG current change (%, negative = inhibition) at 1uM"
1,CN(C)CCNc1ccc(-c2nn(C)c(=O)c3ccccc23)cc1[N+](=O)[O-],10.2%
2,CO/N=C(/CNC(=O)c1ccc(F)cc1)c1ccc(Cl)cc1,16.8%
3,CCOc1cccc(N2C(=O)CC(NNC(=O)c3ccc(Br)o3)C2=O)c1 (stereo not drawn),10.8%
4,CCC1(C)Cc2c(sc3nnn(CC(=O)Nc4ccccc4)c(=O)c23)CO1 (stereo not drawn),-6.5%
5,CC(=O)Oc1ccc(/C=N/NC(=S)Nc2ccccc2)cc1,5.9%
6,N#C/C=C/N1CCN(C(=O)c2ccco2)CC1,17.3%
7,Cc1cc(C(=O)N2CCN(S(C)(=O)=O)CC2)cs1,7.65%
8,COc1ccc(Cl)cc1S(=O)(=O)Nc1ccc2c(c1)n(C)c(=O)n2C,2.77%
9,Oc1ccccc1-c1nc(NC2CCCC2)c2ccccc2n1,17.9%
10,S=c1[nH]nc(COc2cccc(Cl)c2)n1Cc1ccccc1,5.1%
11,CCOc1ccc(C(=O)NC(=S)Nc2ccc(NC(=O)CC)cc2)cc1[N+](=O)[O-],11.5%
12,COC(=O)C1(C(=O)OC)Sc2ccccc2C1=O,9.5%
13,Br.CCCN(CCC)[C@@H]1CCc2cccc(O)c2C1,-16.9%
14,O=C(NC1CCCCC1)c1cc([N+](=O)[O-])ccc1N1CCOCC1,-9.36%
15,Oc1ccc(/C=N/NP(=S)(c2ccccc2)c2ccccc2)cc1,1.62%
16,CCCC(=O)Nc1cc(C(=O)O)ccc1Sc1ccccc1,12.9%
17,COc1cc(/C=C/C(=O)O)cc(OC)c1O,6.39%
18,COCCn1c(CCC(=O)O)ccc1-c1cccs1,12.8%
19,CC(C)CC(NC(=O)C1CCCN1C(=O)CNC(=O)OCc1ccccc1)C(=O)O (stereo not drawn) (Cbz-Gly-Pro-Leu-OH; configuration not given here),15.8%

row,Structure (SMILES),"hERG current change (%, negative = inhibition) at 1uM"
1,CCN(CC(=O)NCc1ccc(Cl)cc1)C(=O)c1cc2ccccc2o1,-0.872%
2,CN(C1CCCCC1)S(=O)(=O)c1ccc(NC(=S)NC(=O)c2cccs2)cc1,9.74%
3,Cc1ccc(Cl)cc1NC(=O)[C@@H]1CCC(=O)N1C1OC(=O)c2ccccc21 (stereo partly drawn),12%
4,O=C(CN(Cc1ccco1)C(=O)c1cccc(Cl)c1)Nc1c(Cl)cc(Cl)cc1Cl,11.6%
5,O=C(COc1ccccc1)N1CCc2ccccc21,9.89%
6,CCOC(=O)c1ccc(N=Cc2nc3ccccc3n2C)cc1,11.2%
7,CC(C)CC(=O)N(c1nnc(-c2cccnc2)s1)C1CCCC1,8.22%
8,COc1cccc(C(=O)NCCS(=O)(=O)N2CCOCC2)c1,4.76%
9,Cc1ccc(NC(=O)CC(=O)Nc2ccc(C)c(C)c2)cc1C,12%
10,CC(C)CCN(C)C1CCN(S(=O)(=O)c2cccc(C(F)(F)F)c2)CC1.Cl,-10.4%
11,CCOc1ccc(CCN2CN(CC)CNC2=S)cc1OCC,11.5%
12,COc1ccccc1NC(=O)CSc1nnc(CCNC(=O)c2ccc(C)cc2)n1C,12.3%
13,COc1ccccc1NC(=O)CCCNC(=O)Cn1cnc2sc(C)c(C)c2c1=O,12.6%
14,Cc1cccc(C(=O)NC2CCN(C(=O)NCc3ccccc3)CC2)c1,4.35%
15,Cc1ccccc1OCC(=O)NNC(=O)c1ccc2c(=O)n3c(nc2c1)CCC3,7.04%
16,N#Cc1ccc(OCC(=O)Nc2nc(-c3cccnc3)cs2)cc1,11.2%
17,CC1=CC2=NC(=O)/C(=C\c3cccn3CCOc3ccccc3)C(=N)N2O1,11.4%
18,CC(=O)Nc1ccc(C(=O)N/N=C(\C)CC(=O)Nc2ccc(OCc3ccccc3)cc2)cc1,18.8%
19,CCOc1ccc(/C=C/C(=O)Oc2ccc(OC)cc2)cc1,12.3%
